Experimental data reported in PubChem BioAssay AID1508623 (National Center for Advancing Translational Sciences (NCATS), 2021).
The campaign covered roughly 48,000 compounds. About 450 (0.94%) were called active. Inconclusive results (about 19%) are left out. The call rests on the fitted dose curve; in most records, active means well fitted inhibition curve with a large enough effect; inconclusive means small, poorly fitted or top-dose-only effect; inactive means no such curve, though single readings can be large or run the other way. Some of the results follow.

Assay: Primary qHTS for Identification of Small Molecule Inhibitors of Huntingtin Promoter Activity; further: nearly all actives have a fitted effect of over 50% in size
Settings: HEK293 HTT promoter firefly luciferase reporter (activity 0% = vehicle and -100% = no light), 24 h; series mostly up to 57.5 µM; activity change, negative = inhibition: at the top concentration
How it was run: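 Firefly luciferase readout (Dual-Glo, 10 min RT) after 24 h, 37 °C compound exposure (final up to 57.5 uM) of HEK293 reporter cells cultured 24 h beforehand; PTC124 at 50 uM final as control inhibitor; activity scaled vehicle 0%, zero RLU -100%.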
Potency means the concentration at half of the fitted maximal effect.

Activity change, negative = inhibition, inactive:
O=C(NCCc1ccc(Cl)cc1)C1CCN(Cc2cc3ccccc3n2Cc2ccccc2)CC1 -27.1%
CCOc1ccc(-c2cc(NC(=O)c3ccccc3)c(C(=O)OC)s2)cc1 9.29%
COc1ccccc1CCNC(=O)c1cccn1-c1nnc(N2CCCC2)s1 -1.66%
Cc1ccc(Cl)cc1N1CCN(c2ncnc3c2nc2n3CCCC2)CC1 -4.71%
CCOc1ccc(Nc2cc(C)nc3nncn23)cc1 -2.78%
Cc1ccccc1NC(=O)Cn1cc(S(=O)(=O)c2ccccc2)c(=O)c2ccccc21 -15.2%
COc1ccc(NC(=O)c2cc3c(-c4ccccc4F)nn(C)c3s2)c(OC)c1 -19.1%
CCCn1c2ccccc2c2cnn(CC(=O)NCCCN3CCCCC3CC)c(=O)c21 (configuration not stated) -8.32%
CC(CNC(=O)c1ccc(Cn2c(=O)c3cccn3c3cccnc32)cc1)c1ccccc1 (configuration not stated) -21.8%
COc1ccc(-c2c(C)c3cc(OC(=O)N4CCOCC4)ccc3oc2=O)cc1OC -20.3%
COc1cccc(C(=O)CC2(O)C(=O)N(Cc3ccccc3)c3ccccc32)c1 (configuration not stated) -19.6%
NC(=O)Cn1c(=O)n(CCCCCC(=O)NCc2ccc3c(c2)OCO3)c(=O)c2sccc21 -0.616%
COc1cccc(Cn2nnc(C(=O)NCc3ccc(Cl)cc3Cl)c2N)c1 -21.2%
CCc1cccc(NC(=O)Cn2c(=O)n3nc(-c4cccc(F)c4)nc3c3ccccc32)c1 -23.5%
CCOc1cc2[nH]c(=O)n(CCCCC(=O)N3CCN(c4ccccc4OC)CC3)c(=O)c2cc1OCC -16.1%
CCCCCCOC(=O)N=C(N)c1ccc(NCc2nc3cc(C(=O)N(CCC(=O)OCC)c4ccccn4)ccc3n2C)cc1 -19.1%
Cc1cn2c(=O)cc(COC(=O)c3ccc(NC(=O)c4ccccc4C)cc3)nc2s1 -13.4%
COc1ccc2c(c1)c1c(c(=O)n(-c3ccc(OC)c(OC)c3)c(=O)n1Cc1ccc(F)cc1)n2C 2.62%
CCOC(=O)C1CCCN(c2c(C(=O)c3ccccc3)cnc3ccc(F)cc23)C1 (configuration not stated) -9.95%
Cc1ccccc1NC(=O)COc1ccc2oc3c(c2c1)CCCC3 4.66%
COc1ccc(-c2cc3nc(C)c(CCC(=O)NCCc4ccc(Cl)cc4)c(C)n3n2)c(OC)c1 -17.2%
O=C(CN1C(=O)COc2ccc(S(=O)(=O)N3CCCCCC3)cc21)N1CCN(c2ccc(F)cc2)CC1 -13.6%
Fc1cc(-c2cccc3ncc(-c4cnn(C5CCNCC5)c4)nc23)cc(F)c1CN1CCOCC1 -9.86%
Cc1ccc(Cn2c(=O)c3cccnc3n(Cc3ccc(C)cc3)c2=O)cc1 -4.87%
Cc1ccc(Cn2c(=O)n(-c3cccc(C(F)(F)F)c3)c(=O)c3c(C)c(C)sc32)c(C)c1 -5.59%
Cc1ccc(CSc2ncc(Cl)c(C(=O)Oc3ccccc3F)n2)cc1 31.8%
Cc1cn(C)c(CC(=O)Nc2cccc(C#N)c2)c1C(=O)O -6.64%
Cc1ccc(-c2nn3c(=O)cc(CN4CCN(C(=O)Nc5cccc(C(F)(F)F)c5)CC4)nc3s2)cc1 3.9%
Cc1ccc(CCNC(=O)c2cnc3c(-c4ccc(F)cc4)c(C)nn3c2C)cc1 3.74%
O=C(CCn1c(=O)c2ccccc2n(Cc2cccc(F)c2)c1=O)NCc1ccc2c(c1)OCO2 -8.99%
COc1cc(OC)c(OC)cc1CN1CCc2nc(N3CCN(C)CC3)ncc2C1 -19.4%
CCc1nn(CC(=O)NCc2ccc(C)cc2)c(=O)c2cc3occc3n12 -10.6%
COc1ccc(N2CCN(c3nc4ccc(C(=O)c5ccccc5)cc4n4cnnc34)CC2)cc1 -12%
COc1ccc(NC(=O)Cc2c(C(=O)O)[nH]c3ccccc23)cc1OC -16.5%
CCOC(=O)c1c(C)n(C)c2ccc(O)cc12
Cc1ccc(NC(=O)c2oc3ccc(S(=O)(=O)N4CCOCC4)cc3c2C)c(C)c1 -9.96%
COc1ccc(CNC(=O)Cc2coc3ccc(C)cc23)cc1 -15.7%
COc1cc(C2c3c(oc4ccc(F)cc4c3=O)C(=O)N2Cc2ccc3c(c2)OCO3)ccc1O (configuration not stated) 1.07%
CCCCN(CC)C(=O)c1c[nH]c2ccc(S(=O)(=O)N(C)c3ccc(Cl)cc3)cc2c1=O -26.2%
COc1ccc(C(=O)Nc2ccc3nc4c(c(Nc5ccccc5OC)c3c2)CCCC4)c(OC)c1 -20.9%
COC(=O)c1cccnc1-n1c(=O)c2cccnc2n(CC(=O)Nc2cccc(C)c2)c1=O -0.385%
CC(C)Oc1ccc(CNC(=O)c2ccc3c(c2)nc2n3CCOC2)cc1 35.5%
COc1cc(NC(=O)N2CCSc3ccccc32)cc(OC)c1OC -5.45%
CCN(c1ccccc1C)S(=O)(=O)c1nnc(NC(=O)c2ccccc2C)s1 -28.2%
Nc1cc(-c2ccncc2)c[nH]c1=O 2.99%
CCCc1nnc(NC(=O)Nc2ccccc2Cl)s1 47.5%
CCOc1ccc(OCC)c(NC(=O)C2CCCN(S(=O)(=O)c3cc(Br)cc4c3N(C(=O)CC)CC4)C2)c1 (configuration not stated) 4.15%
Cc1nc2nc(C)c(NS(=O)(=O)c3ccc(CC(C)C)cc3)c(=O)n2[nH]1 -16.3%
Cc1nn(C(=O)c2c(F)cccc2F)c(C)c1S(=O)(=O)N1CCCCCC1 -5.58%
CCn1c(CN2CCOCC2)nc2cc(NC(=O)c3cccc([N+](=O)[O-])c3)ccc21 -10.4%
COc1ccc(NC(=O)Cn2cc(C(=O)c3ccccc3OC)c(=O)c3ccc(C)nc32)cc1OC -20.9%
Cn1c(=O)c2c(-c3ccccc3)n(CCCO)cc2n(C)c1=O -6.61%
CC(=O)Nc1nnc2n1CCS2 -8.88%
N#Cc1ccc(Oc2ccc3c(c2)COB3O)cc1 -0.695%
Cc1ccc(CN2CCC(CNC(=O)Nc3ccc(C)c(C)c3)C2)cc1 (configuration not stated) -21.5%
Cc1ccc(C)c(NC(=O)/C(C#N)=C/c2ccc(C(C)C)cc2)c1 -19.4%
COc1ccc(C)cc1NC(=O)c1oc2ccc(S(=O)(=O)N3CCC4(CC3)OCCO4)cc2c1C -2.01%
CC(C)N(C(=O)Cn1cc(SCC(=O)Nc2ccccc2C(F)(F)F)c2ccccc21)C(C)C -16.2%
CCCCc1ccc2nc(NC(=O)OC)[nH]c2c1
CC(N)C12CC3CC(CC(C3)C1)C2 (configuration not stated)

Potency, active:
COc1cc(CNC(=O)c2ccc3nc(Cc4ccccc4)oc3c2)cc(OC)c1OC 14.1 µM
CCOc1ccc(CN2CCN(Cc3ccc4c(c3)c3ccccc3n4CC)CC2)cc1 31.6 µM
